Source: patent US20190023795A1 (OSLO UNIVERSITETSSYKEHUS HF, published 2019)

T1: murine mannose receptor (MRC1; CD206) (murine, UniProt Q61830 20-1456)
T1 construct: whole, on cells; also called mMRC1; murine CD206
T1 sequence (looked up): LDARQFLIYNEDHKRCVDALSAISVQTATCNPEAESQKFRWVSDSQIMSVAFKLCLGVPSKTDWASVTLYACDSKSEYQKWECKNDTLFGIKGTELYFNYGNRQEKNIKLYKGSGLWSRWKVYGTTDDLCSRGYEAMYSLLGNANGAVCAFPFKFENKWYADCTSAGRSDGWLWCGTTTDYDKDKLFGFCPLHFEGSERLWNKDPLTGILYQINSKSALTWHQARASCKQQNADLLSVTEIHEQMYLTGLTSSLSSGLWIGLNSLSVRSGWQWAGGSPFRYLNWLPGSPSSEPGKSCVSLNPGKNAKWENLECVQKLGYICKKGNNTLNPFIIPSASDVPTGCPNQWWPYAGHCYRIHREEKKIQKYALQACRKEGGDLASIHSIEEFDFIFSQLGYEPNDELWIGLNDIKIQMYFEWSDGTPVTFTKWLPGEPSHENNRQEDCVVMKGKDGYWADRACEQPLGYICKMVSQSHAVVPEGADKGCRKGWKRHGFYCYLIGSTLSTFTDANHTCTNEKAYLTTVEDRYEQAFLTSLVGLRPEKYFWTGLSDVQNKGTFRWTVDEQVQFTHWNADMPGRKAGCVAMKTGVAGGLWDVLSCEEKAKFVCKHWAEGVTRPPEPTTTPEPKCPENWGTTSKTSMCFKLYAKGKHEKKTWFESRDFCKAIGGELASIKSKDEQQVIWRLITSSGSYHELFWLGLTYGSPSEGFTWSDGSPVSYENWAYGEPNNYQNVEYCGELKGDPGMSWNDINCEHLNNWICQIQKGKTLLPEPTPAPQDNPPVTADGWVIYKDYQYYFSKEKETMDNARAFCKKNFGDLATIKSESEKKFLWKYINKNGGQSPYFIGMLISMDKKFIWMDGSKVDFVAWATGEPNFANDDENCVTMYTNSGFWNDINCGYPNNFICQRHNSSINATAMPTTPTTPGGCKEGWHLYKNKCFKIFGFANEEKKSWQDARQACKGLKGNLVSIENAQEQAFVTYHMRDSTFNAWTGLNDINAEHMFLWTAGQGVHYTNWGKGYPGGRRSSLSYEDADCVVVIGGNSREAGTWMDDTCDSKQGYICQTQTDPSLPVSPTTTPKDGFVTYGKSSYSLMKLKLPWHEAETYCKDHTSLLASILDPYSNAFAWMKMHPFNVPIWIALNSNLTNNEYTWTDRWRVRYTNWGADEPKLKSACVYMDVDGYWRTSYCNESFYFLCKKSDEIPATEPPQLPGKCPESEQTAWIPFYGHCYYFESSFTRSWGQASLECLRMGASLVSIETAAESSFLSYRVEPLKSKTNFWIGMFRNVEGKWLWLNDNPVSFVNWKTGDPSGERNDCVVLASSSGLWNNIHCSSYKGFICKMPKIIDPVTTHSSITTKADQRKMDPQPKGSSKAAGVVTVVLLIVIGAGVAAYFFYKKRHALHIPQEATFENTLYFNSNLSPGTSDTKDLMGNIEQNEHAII


Assays:
[1] = biological target: T1, murine mannose receptor (MRC1; CD206); experiment: flow cytometry on CHO cells expressing mMRC1, detection with antibodies against IL15 or the 6xHis tag
[2] = biological target: T1, murine mannose receptor (MRC1; CD206); experiment: flow cytometry on CHO cells expressing mMRC1, detection with APC-conjugated anti-IL15 antibody

| binding result [1] | binding result [2] | Binder |
| --- | --- | --- |
| binds | – | 206Nb-hIL15 fusion protein (other, not shown: C-terminal cMyc/6xHis tag) MAQVQLQESGGGLVQPGGSLRLSCAASGNIFSINAIGWYRQAPGKQRELVATITLSGSTNYADSVKGRFSISRDNAKNTVYLQMNSLKPEDTAVYYCNANTYSDSDVYGYWGQGTQVTVSSAHHSEDPSSKAPKAPMA[about 120 residues not listed] |
| – | binds | 206Nb-RLI fusion protein (other, The tag-free form was purified on an anti-IL15 column) MAQVQLQESGGGLVQPGGSLRLSCAASGNIFSINAIGWYRQAPGKQRELVATITLSGSTNYADSVKGRFSISRDNAKNTVYLQMNSLKPEDTAVYYCNANTYSDSDVYGYWGQGTQVTVSSAHHSEDPSSKAPKAPMAITCPPPMSVEHADIWVKSYSLYSRERYICNSGFKRKAGTSSLTECVLNKATNVAHWTTPSLKCIRDPALVHQRPAPPSGGSGGGGSGGGSGGGGSLQ[about 120 residues not listed] |
